Hit rate of the full screen: of about 410,000 compounds, about 5,000 (1.2%) were called active. The shares of active, inactive and inconclusive entries below differ from those in the screen. Calls come from the whole dose curve; as a rule, active = well fitted inhibition curve with a large enough effect; inconclusive = small, poorly fitted or top-dose-only effect; inactive = no such curve, though single readings can be large or run the other way. A potency beside an inconclusive call is a rough fit, not a confirmed value.
Test: qHTS for Inhibitors of TGF-b; note: nearly all actives have a fitted effect of over 65% in size
Conditions: HepG2 CAGA-GFP TGF-b/SMAD3 reporter, GFP fluorescence, 18 h, TGF-beta stimulated, 500 pg/mL final; series mostly up to 46.1 µM; activity, negative = inhibition: at the top concentration
Procedure, shortened: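 HEPG2 CAGA-GFP cells (1000/well, DMEM with 1% FBS) were pre-incubated 2 h at 37 degrees C, given compound by pin tool, then stimulated with TGF-beta at 500 pg/mL final for 18 h before per-cell GFP fluorescence imaging.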
% is set by controls: 0 for no effect and ±100 for the full control effect; potency is the fitted concentration of half-maximal effect; tags give direction and shape of the fitted curve.

| Compound | Potency | activity, negative = inhibition |
| --- | --- | --- |
| CC(/C=C1\SC(=S)N(CCC(=O)Nc2ccc(O)cc2)C1=O)=C\c1ccccc1 | inconclusive: 11.2 µM [inhibitor, partial curve, poor fit] |  |
| CCCCOc1ccc(C(=O)NCC(=O)NCC(c2ccco2)N2CCCCC2)cc1 (configuration not stated) | inconclusive: 7.08 µM [inhibitor, partial curve] |  |
| CCN1C(=O)CC(C(C)C)N(C2CCCC2)c2nc(Nc3ccc(C(=O)NC4CCN(C)CC4)cc3OC)ncc21 (configuration not stated) | inconclusive: 31.6 µM [inhibitor, single point] |  |
| c1ccc(Oc2ccc(-n3cnnn3)cc2)cc1 | inconclusive: 35.5 µM [inhibitor, partial curve, poor fit] |  |
| Cc1ccc(NC(=S)NC2CCSc3ccccc32)cc1 (configuration not stated) | inconclusive: 35.5 µM [inhibitor, single point] |  |
| Cc1cc(-c2ccc(S(=O)(=O)N(C)c3ccc(C)c(C)c3)s2)on1 | inconclusive: 35.5 µM [inhibitor, single point] |  |
| CCCCCOc1ccc(CSC2=NCCN2)cc1[N+](=O)[O-] | inconclusive: 35.5 µM [inhibitor, single point] |  |
| CCC(C(=O)N1CCN(c2ccccc2)CC1)n1nc(C)n2c(cc3sccc32)c1=O (configuration not stated) | inconclusive: 3.16 µM [inhibitor, full curve] |  |
| COc1ccc(NC(=S)c2ccc(N(C)C)cc2)cc1 |  | inactive: -1.63% |
| CCN(CC)S(=O)(=O)c1nnc(NC(=O)COc2ccccc2Cl)s1 | inconclusive: 35.5 µM [inhibitor, partial curve, poor fit] |  |
| COc1ccccc1CNC(=O)c1ccc(N2CCCC2)c(NC(=O)NCc2ccccc2)c1 | inconclusive: 35.5 µM [inhibitor, single point] |  |
| Cc1cccc(-n2c(SCC(=O)N3CC(=O)Nc4ccccc43)nc3ccccc3c2=O)c1C |  | inactive: -15.5% |
| CCOC(=O)C1CCN(C(=O)c2ccc(S(=O)(=O)Nc3ccccc3OC)cc2)CC1 |  | inactive: 1.49% |
| COC(=O)c1c(-c2cccc(C)c2)csc1NC(=O)C1CCCO1 (configuration not stated) |  | inactive: 8.41% |
| COCCNC(=O)c1c[nH]c2ccc(S(=O)(=O)N3CCc4ccccc43)cc2c1=O |  | inactive: -25.2% |
| O=C(Nc1cccc(-c2csc(-c3ccccc3)n2)c1)c1cccs1 | inconclusive: 35.5 µM [inhibitor, single point] |  |
| COc1ccc(N2CCN(C(=O)c3ccc(OCC4CCCO4)cc3)CC2)cc1 (configuration not stated) |  | inactive: -8.2% |
| CCOc1ccc(Cl)cc1-c1cc(C(=O)Nc2ccc(F)cc2)[nH]n1 | inconclusive: 25.1 µM [inhibitor, single point] |  |
| CCN(c1ccccc1)S(=O)(=O)c1ccc(OC)c(NC(=O)CN(C)C)c1 |  | inactive: -9.69% |
| COc1cc(OC)c(Nc2cc(C)nc3ncnn23)cc1Cl |  | inactive: 12.2% |
| N#Cc1cccc(NC(=O)COC(=O)c2ccccc2C(=O)c2ccc(Cl)c([N+](=O)[O-])c2)c1 | inconclusive: 35.5 µM [inhibitor, single point] |  |

| Compound | Potency | activity, negative = inhibition |
| --- | --- | --- |
| COc1ccccc1C=C(C(=O)c1ccccc1)c1ccccc1 | inconclusive: 12.6 µM [inhibitor, partial curve, poor fit] |  |
| O=C(NN=Cc1ccc2c(c1)CCN2)c1cccs1 |  | inactive: -15.5% |
| CC(=O)c1ccc(Oc2cc(C)nc(-n3nc(C)cc3C)n2)cc1 | inconclusive: 15.8 µM [inhibitor, single point] |  |
| CCOc1cc(N2CCOCC2)c(OCC)cc1NC(=O)COc1cccc2cccnc12 | inconclusive: 11.2 µM [inhibitor, single point] |  |
| CCOCCCN(C(=O)Cn1nnc(-c2ccc(OC)c(OC)c2)n1)C(C(=O)NCC1CCCO1)c1ccc(F)cc1 (configuration not stated) | inconclusive: 35.5 µM [inhibitor, single point] |  |
| Cc1ccc2c(c1)NC(=O)C(CC(=O)Nc1cc(Cl)ccc1C)O2 (configuration not stated) | inconclusive: 6.31 µM [inhibitor, single point] |  |
| Cc1ccc(Nc2nc(-c3c(C)nc4ncccn34)cs2)cc1 | inconclusive: 1.12 µM [inhibitor, full curve, poor fit] |  |
| COc1ccccc1NC(=S)NCCc1ccccc1 | inconclusive: 6.31 µM [inhibitor, single point] |  |
| COc1ccc(NC(=O)c2c(NCc3ccc(C)o3)sc3c2CCC(C)C3)c(OC)c1 (configuration not stated) | inconclusive: 11.2 µM [inhibitor, partial curve, poor fit] |  |
| COCCc1nc2ccc(C(=O)N(C)Cc3cccc(-n4cccn4)c3)cc2o1 | inconclusive: 3.98 µM [inhibitor, single point] |  |
| Brc1ccc(Nc2ncnc3[nH]ncc23)cc1 | inconclusive: 35.5 µM [inhibitor, single point] |  |
| COc1cccc(Oc2ccc(C(F)(F)F)cc2NC(=O)c2cccc(F)c2)c1 | inconclusive: 35.5 µM [inhibitor, single point] |  |
| Cc1ncc(CO)c2c1OC(C)(C)OC2 |  | inactive: -28.6% |
| CCN(CC)CCN1C(=O)c2ccccc2NC1c1ccc(N(C)C)cc1 (configuration not stated) | inconclusive: 6.31 µM [inhibitor, single point] |  |
| CCC(=O)N(CCC1(c2ccccc2OC)CCOC(C(C)C)C1)Cc1ccco1 (configuration not stated) | inconclusive: 35.5 µM [inhibitor, single point] |  |
| O=C(NCc1nnnn1-c1ccc(Cl)cc1)c1ccc([N+](=O)[O-])o1 | inconclusive: 22.4 µM [inhibitor, single point] |  |
| COc1ccc(C(=O)NCc2nnc(SCC(=O)Nc3ccccc3)n2-c2ccc(F)cc2)cc1 | inconclusive: 3.55 µM [inhibitor, full curve] |  |
| CC(C)CC1Nc2ncnc(N3CCOCC3)c2N(Cc2ccc(Br)cc2)C1=O (configuration not stated) | inconclusive: 5.62 µM [inhibitor, single point] |  |
| Nn1cnnc1N/N=C/c1ccc(Cl)c([N+](=O)[O-])c1 | inconclusive: 12.6 µM [inhibitor, partial curve, poor fit] |  |
| COc1cc(N2C(=O)CSC2=S)cc(OC)c1OC | inconclusive: 20 µM [inhibitor, partial curve] |  |
| CCOc1ccc(Cn2nnc3c(=O)[nH]c(C4CCN(C(=O)c5ccccc5)CC4)nc32)cc1 | inconclusive: 35.5 µM [inhibitor, partial curve, poor fit] |  |

Reference: PubChem BioAssay AID588855 (National Center for Advancing Translational Sciences (NCATS), 2011)
